Reference: the supplement of paper PMC10126150
Values marked as one replicate rest on one cluster of the flow cell; about a third of the high ones do not repeat.

Test system: ATP
Assay: switch fluorescence ratio, 500 uM ATP over buffer (Cy3 cluster intensity, sum of 5 cycles each) (fold (ratio)); higher = stronger signal-on switching upon ATP binding
Conditions: aptamer strand: ATP DNA aptamer (quencher-CACCTGGGGGAGTATTGCGGAGGAAGG + anchor), 100 nM annealed; ATP concentration: 500 uM; one replicate
Method in brief: (§1)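 The quencher-labelled ATP aptamer, at 100 nM, was annealed to Cy3-labelled switching-strand clusters on a modified Illumina MiSeq flow-cell. The clusters were imaged in selection buffer, then after 15 min with 500 uM ATP at 22 °C, and this buffer/ATP cycle ran five times with NaOH stripping and re-annealing between runs. Per-cluster fluorescence ratios, summed target-cycle over summed buffer-cycle Cy3 intensity, were averaged per switch-domain sequence. Clusters outside 100-1000 RFU were excluded.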
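Note: ATP exposure 15 min at 22 °C before imaging.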

Sequence | switch fluorescence ratio
TCGTCGGCAGCGTCAGATGTGTATAAGAGACAGTTTTTTTTTTTTTTTTTTTTTTTTTGTTTC | 1.06

Test system: ATP
Assay: switch fluorescence ratio, 500 uM ATP over buffer (Cy3 cluster intensity, sum of 5 cycles each) (fold (ratio)); higher = stronger signal-on switching upon ATP binding; sequences stand for … in TCGTCGGCAGCGTCAGATGTGTATAAGAGACAGTTTTTTTTTTTTTTTTTTTTTTTTT…TC
Conditions: aptamer strand: ATP DNA aptamer (quencher-CACCTGGGGGAGTATTGCGGAGGAAGG + anchor), 100 nM annealed; ATP concentration: 500 uM; one replicate
Method in brief: as §1

Sequence | switch fluorescence ratio
CCCGGGAAGG | 0.981
GGGTCGAGAC | 1.1
ACGTTACGGG | 1.47
TATCGGGGAT | 1
CGGGCGCTGC | 1.07
CTCGATTGAG | 0.997
CTGATTGTAA | 1.04
CCGACTGGTG | 1.8
GAGAGATGT | 0.978
AGGGTCTAGT | 1
CTCAATAAAT | 1.01
ACATCGCCCC | 1.07
CAAGTATTCC | 1.01
GAGTTTTTCT | 0.944
GAGAAGATAT | 0.996
TGTAATCTAG | 1.02
ATTAACACTG | 1.2
TTCACGGTTT | 0.973
TTGAGATG | 0.983
GGTGGCGGTA | 0.999
GACAACCCCT | 1.06
AATACGACA | 1.33
AATCTGTGGG | 1.01

Sequence | switch fluorescence ratio
ACAAGCTATT | 0.95
CTGCAATCCG | 2.15
TCAATACTCA | 3.14
TATGAGATAA | 1.05
ACGATTTGGG | 0.969
GGCTATAGCT | 1.03
TTGAAACTTA | 1.03
ATAGGGCAAC | 0.965
GAATAGATAT | 1.03
CACACTAGGA | 1.03
TGGAGCACAG | 1.3
ATCGCAGGGT | 1.01
CGGCTAAATT | 0.986
GGTTGACCAT | 1.03
CCGTCTGTGG | 1.02
ACCTTCAAGG | 1.03
CACAGTTTCC | 1.11
CGGGAGCGTG | 1.08
GCTTAGCCCG | 0.995
CGGTTTGTGG | 1
ACACTTTGTT | 0.997
AGCTTATTGT | 1.02
TGCCTTGTCC | 0.993

Sequence | switch fluorescence ratio
AGTTGACAGT | 0.977
CGCATAATTG | 1.1
GTGGATGAGA | 0.983
ACCGTGCTTG | 1.04
ACGTGAGTTC | 1.01
CGATGATTG | 0.986
GTTTACTATC | 0.984
GATATCCGTC | 0.998
GATCGTCATC | 0.999
TTATAAGGTC | 0.985
TTTTGGAATC | 1.01
ATTCAGATAA | 0.972
CGGGAGCTAT | 1.39
CAGTCGGTCC | 0.968
TATACTTATG | 1.04
AGCTAACAAA | 0.992
GCCTCGCAAA | 1.06
TAGGACTGGT | 0.997
CTGACAGTCA | 1.06
TTAGGACGTA | 1.03
TAACTTGTTA | 1.03
ATCTAATAGT | 1.02
TCCGCGGGCT | 1.33

Sequence | switch fluorescence ratio
TTTTAAGT | 0.987
TGAGTGAACA | 1.01
AGGCTGTAT | 1.02
TTGGAGCAGC | 1.99
GGAATCCTGG | 0.984
TATATCCCGG | 0.977
GGCGATACAC | 1.38
TACGTAAAA | 1.11
ACGCGGGGCT | 1.05
TACGTTCTAG | 0.969
GGCCTCGTGA | 1.04
AAATCAGTTC | 1.04
TATAAGGGAT | 1.04
CATGTGGATG | 1.03
AAAGTTCTCG | 0.994
GAGGATGATA | 1.03
AAATTAATGA | 1
ACGGACCATA | 1.34
ACCTCGCAAG | 4.49
CTCCGTTAAT | 0.991
AAGAGCCTGG | 0.967
AGAAGACTAA | 1.03
TGGGACGCGA | 1.56

Sequence | switch fluorescence ratio
TGAATAGGTG | 1.18
TTCCGGCCTT | 1.18
GTTTCTTGCA | 0.997
TAATTGAA | 0.967
AGCATACGTG | 1.09
CCGGGTCATA | 1.1
GAAATCTACG | 1.07
CGTTATCAGG | 1.04
CTTATATGTT | 0.961
ACCTGCGAA | 1.13
GGTGCGTGCA | 0.974
CGCAAAGTGC | 2.63
ATCGGGTCGC | 1
GCGTCCACAC | 1.04
AATTATGCGC | 1.02
TCCGTGCGCT | 3.77
TGCGTACAAG | 0.977
AGACCTCATG | 1
ACATTGGACC | 1.05
TGGGTTGAGC | 0.961
AGTTCGTTCC | 1.31
CCTTAAACAA | 1.21
TTGTGTACAA | 1.02

Sequence | switch fluorescence ratio
CTCGCTTGCC | 0.963
TATAGAGGTC | 1.07
CTAAAGAGT | 1.01
TGGTTCAAGG | 1
TAACAGAAAT | 0.987
AGTATAGAG | 0.966
GCAGACCCGA | 0.988
ACGAGAGTTA | 0.996
GTCGTCATGG | 1.05
GCGACATTCG | 1.02
CGATCAGGCG | 1.01
TAGCGATAGC | 0.981
TATTGAGTAT | 1
CATAAGGGCA | 0.999
AAGTCAAGGA | 1
AACTGGTTAC | 1.01
TCGGACAGAA | 1.02
GGGTTGC | 1.03
CGTGGCGAA | 0.957
TTAGGCAATA | 2
ATTCATTAAT | 1.01
TTGTGATGGG | 0.994
CTATGTGGCC | 0.992

Sequence | switch fluorescence ratio
GTTACGGGG | 1.01
GCGTACTTGA | 0.993
TATGATTA | 1.02
GAGGAACGTC | 1
AGTGATCTAG | 1.01
TGCACCAGAA | 1.03
ATGACTTAAA | 0.986
AACCCATGC | 1.21
TCTATAAACG | 0.995
CAACGGATGA | 1.02
ATTTGCGGAA | 1.03
AGGCTTTGAT | 0.979
CAAGCACGTG | 1.03
GCCCCACACG | 2.09
GACGGAGTAA | 2.64
TGATCGGAAA | 0.991
GTAGGTATAG | 1
AAAGGCCTCC | 1.04
GGCTTCTACA | 1.01
GTGTGAGAAA | 0.985
AAAGTCATCA | 0.98
ACCGGTTGT | 1.01
GTTAGCGTCA | 1.03

Sequence | switch fluorescence ratio
CGCGATAAGC | 1.29
AAAGTCCCCT | 1.17
TGTAGCGCAG | 1.01
AGGTCTGTGC | 0.972
TCCCCGTGTC | 1.85
GGTGCTACTT | 0.993
GCCTGGATGA | 0.968
ACCATATGCT | 1.09
AAGGCCAAGG | 1.01
TGGTGGGGA | 0.962
TCGTCGGCGG | 1.02
ATTTAAGTAG | 1.02
TTTCGAAGG | 1.02
CGTCATCTTA | 0.922
TTAGACATTG | 1.03
TTGAAGGCCA | 0.994
AACTCTACAC | 1.16
TGTATGCGT | 0.97
GTGGATGGC | 0.966
CTACCAAATC | 1.36
CATTGGACT | 0.967
TGCCAAACTT | 1.02
